Assay results published in PubChem BioAssay AID1346428 (National Center for Advancing Translational Sciences (NCATS), 2018).
Several values for one entry are separate records, joined by “and”; a condition that tells them apart may be missing. Equal values may be shown once. About 1,200 (2.5%) of roughly 48,000 compounds were called active. About 2% were inconclusive and are not listed.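 How the source made its calls: active means activation of at least 60% and not above a set upper limit (about 1 call in 100 departs from these limits); inconclusive means activation of 40% to 60%, or above that upper limit; inactive means activation under 40%.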 The list shows a part of the results.

Molecular target: Probable G-protein coupled receptor 32 (Homo sapiens) (UniProt O75388)
Sequence of UniProt O75388 (O75388 whole entry, looked up): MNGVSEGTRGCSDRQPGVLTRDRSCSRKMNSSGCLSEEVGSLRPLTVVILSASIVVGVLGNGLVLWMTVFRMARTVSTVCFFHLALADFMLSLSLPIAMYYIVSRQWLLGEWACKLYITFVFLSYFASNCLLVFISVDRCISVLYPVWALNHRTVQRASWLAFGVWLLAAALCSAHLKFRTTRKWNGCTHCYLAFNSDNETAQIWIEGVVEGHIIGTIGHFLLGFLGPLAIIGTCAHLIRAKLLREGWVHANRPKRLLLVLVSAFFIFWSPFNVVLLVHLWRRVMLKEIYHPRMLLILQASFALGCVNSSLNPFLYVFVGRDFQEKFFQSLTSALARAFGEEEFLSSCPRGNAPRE
Assay: qHTS for Agonists of Human Resolvin D1 Receptor DRV1; further: 0% is about no effect
Settings: CHO-K1 GPR32 beta-arrestin PathHunter luminescence, 90 min; at 76.9 µM; active compounds read high; zero percent set by DMSO-only wells
Method in brief: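 GPR32 activation in stably transfected CHO-K1 cells, detected as beta-arrestin recruitment by enzyme-fragment complementation. Compound exposure: 90 min, 37 °C.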

activation, inactive:
COc1ccccc1NC(=O)c1ccc2oc(=O)c(S(=O)(=O)c3ccccc3)cc2c1 3.48%, COc1ccc(C(=O)NCCn2cc(SCc3cc(C)ccc3C)c3ccccc32)cc1 -24.3%, Cc1cc(N2CCN(c3cccc(C)c3C)CC2)n2nc(C)c(-c3ccc(Cl)cc3)c2n1 -4.32%, COc1ccc(-n2c(-c3ccco3)nc3c(cnn3-c3ccccc3C)c2=O)cc1 -5.39%, Cc1ccccc1CNC(=O)c1cc2cc(S(=O)(=O)N3CCCCC3)ccc2n1C -11.8%, CCOc1ccc(C2c3c(oc4ccccc4c3=O)C(=O)N2c2nnc(C)s2)cc1OC (stereo not given) -2.67%, Cc1cc(C)n2c(Nc3ccccc3)c(-c3ccccc3)nc2n1 -26%, Cc1cc(C)c2oc(C(=O)Nc3ccc(S(=O)(=O)N4CCC(C)CC4)cc3)cc(=O)c2c1 -0.498%, Cc1ccc(CN2CCN(C3CCN(C(=O)Nc4ccccc4C(F)(F)F)CC3)C(=O)C2=O)cc1 -2.69%, Cc1cccc(Cn2cnc3c(cnn3-c3ccc(Cl)cc3)c2=O)c1 -0.874%, Cn1c(CNC(=O)CSc2nc(-c3cccc(Cl)c3)nc3cc(=O)[nH]n23)nc2ccccc21 13%, CCn1c(=O)cc(OCC(=O)N2CCN(c3ccccc3OC)CC2)c2ccccc21 25.8%, Cc1ccc(S(=O)(=O)n2nc(-c3ccco3)nc2NCc2ccccc2Cl)cc1 -21.2%, COc1cccc(NC(=O)C2CCN(c3nc4ccccc4nc3C(F)(F)F)CC2)c1 -22.2%, Cc1cccc(Cn2nnc(C(=O)Nc3cc(C)ccc3C)c2N)c1 15.6%, Cc1cccc(C)c1NC(=O)CCCN1C(=O)CCn2nc(-c3cn(C)c4ccccc34)cc21 11.7%, CC(C)NC(=O)C1CCCN(c2ncnc3c2nc2n3CCCCC2)C1 (stereo not given) -4.96%, CC(NC(=O)c1ccc2c(c1)N(Cc1ccc(Cl)cc1)C(=O)c1ccccc1S2=O)c1ccccc1 (stereo not given) -4.43%, Cc1ccc(CNC(=O)CCCn2c(=O)c3ccccc3n(Cc3ccccc3C)c2=O)cc1 -8.39%, COc1ccc(Cl)cc1NC(=O)Cn1cnc2c1c(=O)n(C)c(=O)n2C 1.25%, O=C(Nc1ccccc1C(=O)OCc1cc(=O)n2ccsc2n1)c1ccc(Cl)cc1 3.67%, O=C(COCc1cc(-c2ccc(F)cc2)on1)Nc1cccc(Cl)c1Cl -12.8%, CCCc1cc(=O)[nH]c2nnc(SCC(=O)Nc3ccc(OC)cc3)n12 -9.61%, COc1cccc(N2CCN(c3ncnc4c3c(-c3ccccc3)cn4-c3ccc(C)cc3)CC2)c1 -15.5%, CC(=O)Nc1c(I)c(NC(C)=O)c(I)c(C(=O)O)c1I -6.68%, O=C(NCc1cccn1Cc1ccccc1)Nc1ccc(Br)cc1F -6.28%, Cc1ccc(S(=O)(=O)c2nnn3c2nc(NC(C)c2ccccc2)c2sccc23)cc1 (stereo not given) -13.9%, COc1cc2nc(N3CCN(C(=O)OCc4ccccc4)C(C(=O)NC(C)(C)C)C3)nc(N)c2cc1OC (stereo not given) -21.3%, CCOc1ccc(N2CC(NC(=O)c3ccc(S(=O)(=O)N4CCCC4)cc3)CC2=O)cc1 (stereo not given) -6.31%, Cc1ccc(Cl)cc1NC(=O)Nc1nnc(N2CCCC(C)C2)s1 (stereo not given) -0.904%, COc1ccccc1CNC(=O)CCNS(=O)(=O)c1ccc2c(c1)CCCC(=O)N2 16.6%, CCOC(=O)c1c(C)[nH]c(C)c1S(=O)(=O)NCC(=O)NCc1ccc(C)cc1 -40.4%, CCN(CC)S(=O)(=O)c1ccc2c(c1)nc(CN(C)C(=O)Nc1ccc(Cl)cc1)n2C 2.49%, Cc1ccc(S(=O)(=O)NC(=O)NC2CCCCC2)cc1 -9.92%, Cc1ccc(NC(=O)CNC(=O)Cn2c(C)cc3ccccc3c2=O)cc1F -7.8%, O=C(Cn1c(=O)n(Cc2ccc(Cl)cc2)c(=O)c2cccnc21)Nc1ccccc1C(F)(F)F -2.66%, CN(Cc1ccc(F)cc1)S(=O)(=O)c1nnc(NC(=O)c2ccccc2Br)s1 6.2%, Cn1c(=O)oc2cc(S(=O)(=O)N3CCC(C(=O)NCc4ccccc4)CC3)ccc21 16.9%, O=C(NCc1cccn1Cc1ccccc1)Nc1cccc(C(F)(F)F)c1 12.5%, CCOC(=O)c1c(C)c(-c2ccccc2)n(CC(=O)NCc2cccc(OC)c2)c1C 42.9%, Cc1ccc([N+](=O)[O-])cc1S(=O)(=O)N1CCn2cccc2C1c1ccccc1F (stereo not given) -7.31%, COCCNC(=O)c1c(-c2ccccc2)c(-c2ccccc2)nn(C)c1=O -11.9%, Cc1ccc(-n2nc3c(=O)n(CCCC(=O)NCc4ccccc4C)nc(C)c3c2C)cc1 -1.32%, CCc1cc(C(N)=S)ccn1 -48.2%, Cc1cccc(-c2nc3scc(CCNS(=O)(=O)c4c(C)noc4C)n3n2)c1 -4.58%, Cc1ccc(F)cc1NC(=O)CCc1c(C)nn(-c2ccc(N3CCCC3)nn2)c1C 4.31%, CCOC(=O)c1c(SCC(=O)Nc2nc3ccccc3s2)nc(=O)[nH]c1C 13.2%, CCC(Sc1nnc(C)n2c1cc1sccc12)C(=O)Nc1ccccc1F (stereo not given) -33.4%, CCOc1ccccc1C(=O)Nc1ccc(S(=O)(=O)Nc2onc(C)c2C)cc1 3.55%, CC(=O)c1ccc(NC(=O)Cn2cnc3nc4c(cc3c2=O)CC(C)CC4)cc1 (stereo not given) -1.12%, CCOc1cccc(C2c3[nH]c4ccccc4c3CCN2C(=O)c2ccccc2F)c1 (stereo not given) -30.9%, Cc1ccc(NC(=O)CSc2nc3ccc(NC(=O)c4cccs4)cc3s2)cc1 10.5%, CCOC(=O)c1cnc2cc(C(F)(F)F)ccc2c1N1CCN(c2cccc(Cl)c2)CC1 -7.75%, CCOc1cc(CNC(=O)c2ccc(Cn3c(=O)c4cccn4c4cccnc43)cc2)ccc1OC -15.8%, Cn1nnc2c(N3CCN(c4ccccc4)CC3)ncnc21 -2.75%, COCCn1c(SCC(=O)c2ccc(C)cc2C)nc2cc(C(=O)NC3CCCC3)ccc2c1=O -0.997%, Cc1cc2ccccc2n1CCNC(=O)c1cc(C(F)(F)F)cc(C(F)(F)F)c1 -0.726%, CC(C)COc1ccc(C2=NC(c3ccncc3)=Nc3ccc(F)cc3N2)cc1 -2%, CC(=O)Nc1ccc(S(=O)(=O)Nc2ccc([N+](=O)[O-])cc2)cc1 -69.7%, COC(=O)[C@H]1[C@H]2C[C@@H]3c4[nH]c5cc(OC)ccc5c4CCN3C[C@H]2C[C@@H](OC(=O)/C=C/c2ccc(O)c(OC)c2)[C@@H]1OC -4.29%, CCOc1ccc(N(CC)S(=O)(=O)N2CCCC(C(=O)Nc3cc(Cl)ccc3C)C2)cc1 (stereo not given) -16.2%, COC(=O)c1cc(NC(=O)c2nn(C)c3c2CSc2ccccc2-3)cc(C(=O)OC)c1 -3.15%, Cc1ccc(C(=O)Nc2ccc(S(=O)(=O)O)c3cc(S(=O)(=O)O)cc(S(=O)(=O)O)c23)cc1NC(=O)c1cccc(NC(=O)Nc2cccc(C(=O)Nc3cc(C(=O)Nc4ccc(S(=O)(=O)O)c5cc(S(=O)(=O)O)cc(S(=O)(=O)O)c45)ccc3C)c2)c1 -1.91% and -14.5%, CN1CCN(C(=O)Cn2c(-c3cccs3)cc3cc(Cl)ccc32)CC1 -5.88%, Cc1ccc(Cl)cc1N1CCN(C(=O)C2CCN(S(=O)(=O)c3cccc4nonc34)CC2)CC1 -2.6%, Cc1ccccc1OC(=O)CSc1nnc(-c2ccc3c(c2)OCO3)o1 -1.08%, CC(=O)c1c(C)oc2c(Br)cc(NS(=O)(=O)c3ccc(Br)cc3)cc12 -0.638%, O=C(c1noc2c1CCCCC2)N1CCN(c2cccc(C(F)(F)F)c2)CC1 -12.2%, COc1ccccc1CNc1nc2ccc(Cl)cc2n2cnnc12 -20.6%, CC(C)c1ccc(NC(=O)c2cc(S(=O)(=O)N3CCCCC3)cn2C)cc1 10.1%, CCCCN(CC)CCCNC(=O)Cn1ncc2c3ccccc3n(Cc3ccccc3F)c2c1=O -17.6%, CCOc1ccc(-c2cc3c(=O)n(Cc4nc(-c5ccc(OC(C)C)cc5)oc4C)ccn3n2)cc1Cl -11%, CCN(CC)CCNC(=O)c1ccc(CSc2nc3ccncc3n2Cc2cccc(F)c2)cc1 4.46%, CC(C)(C)c1ccc(C(=O)N2CCC(c3nc(-c4ccc(S(=O)(=O)N5CCCC5)cc4)no3)CC2)cc1 -4.46%, Cc1ccc(-c2n[nH]c3c2C(c2cccc(O)c2)N(c2ccc(C(=O)O)cc2)C3=O)cc1 (stereo not given) -19.7%, COc1ccc(CNC(=O)C2CCCN(C(=O)N3CCOc4ccccc43)C2)cc1 (stereo not given) -7.89%, COc1cc(C2SC[C@H]3C(=O)N(c4ccccc4)C(=O)N23)cc(OC)c1OC (stereo not given in full) 17.1%, O=C(Oc1ccccc1)c1cccc(C(=O)Oc2ccccc2)c1 17.2%, O=C(Cn1nc(N2CCN(c3ccccc3)CC2)ccc1=O)Nc1ccc(F)cc1F -9.33%, Cc1ccccc1-c1nc(CN2CCC(C(=O)NCCc3ccccc3)CC2)c(C)o1 -1.91%
